# About 400 (5.1%) of roughly 7,900 compounds showed an effect of 50% or more. This is one part of the list.
# Target: Parkinson's disease protein 7 (PARK7/DJ1) (human, UniProt Q99497)
# Test: primary screen, percent inhibition; read as competition with a fluorescent probe by fluorescence polarization; higher = more effect of the substance
# Conditions: 100 µM
# Method in brief: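 Fluorescence-polarization probe displacement (JYQ-107, 20 nM final, 2 h) after 2 h preincubation of PARK7 (0.2 μM final) with each fragment at 100 μM final. Read-out ex/em 480/520 nm; remaining activity derived from FP signal loss relative to reference controls.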
# Sequence of Parkinson's disease protein 7 (PARK7/DJ1) (Q99497 whole entry, looked up): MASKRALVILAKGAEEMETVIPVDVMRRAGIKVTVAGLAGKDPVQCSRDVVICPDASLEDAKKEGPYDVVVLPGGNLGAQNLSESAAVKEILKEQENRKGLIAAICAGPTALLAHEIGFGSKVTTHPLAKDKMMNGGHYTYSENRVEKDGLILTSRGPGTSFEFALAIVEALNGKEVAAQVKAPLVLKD
row,SMILES,Inhibition % [%]
1,C=CC(=O)NC1CCN(C)c2ccccc21 (stereo not drawn),13.1
2,OB(O)c1cc(F)ccc1OCC1CCOC1 (stereo not drawn),4.59
3,CC1(C)C(=O)NC1c1cccs1 (stereo not drawn),5.37
4,O=C(O)Cc1sc(O)nc1O,8.54
5,C=CC(=O)N1CC2(CCC2)C1c1ccco1 (stereo not drawn),6.4
6,C=CC(=O)NCc1ccnc(C(F)(F)F)c1,11.3
7,c1ccn(CCC2CO2)c1 (stereo not drawn),4.81
8,Cc1ccc(C=CS(=O)(=O)Nc2c(C)c(C)nn2C)cc1,8.21
9,C=CC(=O)NC(C(=O)N1CCCC(C)C1)c1cnn(C)c1 (stereo not drawn),1.49
10,CC(C)(C)OC(=O)NCc1ccsc1B1OC(C)(C)C(C)(C)O1,-0.214
11,C=CC(=O)NC1CCC(C)(CC)CC1 (stereo not drawn),6.32
12,C=CC(=O)N1CCC(c2ccon2)CC1,9.48
13,C=CC(=O)N1CC[C@@H](Oc2ccccc2)C1,3.37
14,O=C(CCl)NCCCN1CCCCCC1=O,11.7
15,C=CC(=O)N1CCC(C)(C)c2ccccc21,-0.137
16,CNC(=O)c1ccc(NC(=O)CCl)cc1,16.6
17,Cc1ccc(C=CC(=O)N2CCN(c3nccs3)CC2)o1,5.55
18,CC1CCC(NC(=O)Cn2cnc(C#N)n2)CC1 (stereo not drawn),6.94
19,O=C(CCl)Nc1cccc2c1N=S=N2,24.9
20,N#Cc1cnc(NCC(F)F)cn1,4
21,O=C(CO)NC1CN(c2ccc(F)cc2)C1=O (stereo not drawn),5.55
22,C=CC(=O)N1CCCC1c1nccs1 (stereo not drawn),10
23,O=S1(=O)CC=C(Cl)C1,3.43
24,C=CC(=O)NC1(COC)CCOCC1,11.5
25,CC(C)(C)OC(=O)c1cc2ccc(B3OC(C)(C)C(C)(C)O3)cc2[nH]1,7.8
26,C=CC(=O)N1CCCc2ccccc2C1,10.7

row,SMILES,Inhibition % [%]
1,COc1cc(NC(=O)CCl)c(C)cc1[N+](=O)[O-],5.4
2,C=CC(=O)NCc1cscn1,4.74
3,COCCNC(=O)C(C#N)=Cc1sccc1C,3.38
4,OCC1(CC2CO2)CCCC1 (stereo not drawn),16.1
5,C=CC(=O)NCc1c(C)oc2ccccc12,10.7
6,C=CC(=O)NC1CCC(F)C1 (stereo not drawn),9.01
7,N#Cc1nccc2c1CCCC2,6.94
8,Cn1nc(-c2ccc(F)cc2)oc1=O,-2.46
9,Cc1ccc(C#N)nc1N1CCCOC(C)C1 (stereo not drawn),42.8
10,COc1cc(C)c(C(C)C)cc1S(=O)(=O)n1cnc(C)c1,11.1
11,COC(=O)c1c(NC(=O)CCl)sc2c1CCCCC2,8.32
12,COC(=O)C1CC(=CB2OC(C)(C)C(C)(C)O2)C1 (stereo not drawn),29.2
13,CCOc1ccc(C)cc1S(=O)(=O)n1nc(C)cc1C,2.18
14,NC(=O)C1CCCC1NS(=O)(=O)C=Cc1ccccc1 (stereo not drawn),4.03
15,C=CC(=O)N[C@@H]1CCC(=O)N[C@H]1C(C)(C)C,6.16
16,Cc1cc(C)n(S(=O)(=O)c2ccc(F)c(C)c2)n1,6.78
17,C=CC(=O)N(C)C1CCC(C(C)C)CC1 (stereo not drawn),7.85
18,Cn1cnc(C=C(C#N)C(=O)NCCc2ccccc2)c1,2.37
19,C=CC(=O)N1CCCC1c1ncccn1 (stereo not drawn),10.5
20,O=c1[nH]c(-c2cccnc2)no1,12.5
21,O=C1CCSC(=O)N1,4.69
22,C=CC(=O)Nc1ccc2ccc(=O)n(C)c2c1,7.33
23,Cc1ccc2cccc(OC(=O)N3CCCC3)c2n1,13.5
24,O=C(CCl)NCCCN1CCCC1=O,3.35
25,N#Cc1cccc(NC(=O)CN2CCSC2=O)c1,9.19
26,Cc1ccc(F)c(NC(=O)CN2CCSC2=O)c1,5.37

row,SMILES,Inhibition % [%]
1,O=C(Nc1cccc(S(=O)(=O)F)c1)C1(CF)CCOCC1,95.3
2,CN(CC(F)F)S(=O)(=O)c1cccnc1C#N,5.21
3,C=CC(=O)NC12CCC(F)(CC1)CC2,9.53
4,CC1(C)OB(C=C2CCOCC2)OC1(C)C,9.49
5,Cc1ccc(OCCCn2cnc(C#N)n2)cc1C,3.96
6,C=CC(=O)N1CCC(c2nnc3n2CCC3)CC1,7.52
7,CN(C)c1ccc(C=C(C#N)C(=O)Nc2nccs2)cc1,10.4
8,Cc1cccc(Cc2cnc(NC(=O)CCl)s2)c1,41
9,C=CC(=O)N1CCN(CC)C(=O)C1CC (stereo not drawn),7.08
10,CC1CC(N2CCCc3ccccc32)C(=O)O1 (stereo not drawn),12.8
11,COC[C@@H]1C[C@@H](OC)CN1C(=O)c1c[nH]c(C#N)c1,6.56
12,C=C(C)c1nc(C#N)c(N2CCC(C(N)=O)CC2)o1,6.94
13,C=CC(=O)N1CC[C@@H]2COC(=O)N[C@H]2C1,8.41
14,Cn1cc(OS(=O)(=O)c2cn(C)c(Cl)n2)cn1,15.9
15,Clc1ccccc1CN1CCC(C2OCCO2)CC1,6.11
16,Cc1cc2c(=S)nc[nH]c2s1,28.3
17,CNCc1cc(B2OC(C)(C)C(C)(C)O2)co1.Cl,9.09
18,CN(CC1(O)CCCC1)C(=O)c1cccnc1S,5.79
19,C=CC(=O)NC1CCN(C(=O)c2ccccc2F)CC1,10.3
20,C=CC(=O)N[C@H]1CCO[C@@H]1c1nccn1CC,11.3
21,O=C(CCl)NC(=O)c1cccc([N+](=O)[O-])c1,31.5
22,C=CC(=O)N1CCCCC1c1nc(COC)n[nH]1 (stereo not drawn),5.76
23,C=CC(=O)NC(C)C(=O)N1CCCCC1C (stereo not drawn),-0.998
24,Cc1csc(C#N)n1,5.21
25,SCc1cccnc1,16.8
26,C=CC(=O)Nc1ccc(OCC)c(OC)c1,12.4

row,SMILES,Inhibition % [%]
1,C=CC(=O)N1CCC[C@H]1C(=O)NC,4.18
2,CN(Cc1cccc(B(O)O)c1)c1ccccc1.Cl,8.29
3,C=CC(=O)N1CCOc2c(F)ccc(F)c21,9
4,Cc1cccc(Cn2cnc(C#N)n2)c1,4.04
5,CN(C)CCc1ccc(B(O)O)cc1.Cl,2.57
6,O=C(CCl)Nc1cccc(Cl)c1,34.6
7,C=CC(=O)N1CC2(CCOCC2)C1C1CC1 (stereo not drawn),9.93
8,Cc1cc(NC(=O)CCl)n(-c2ccccc2)n1,29.6
9,Cl.N#Cc1cccc(N2CCNCC2)n1,13.3
10,O=C(O)c1cccc(N2C(=O)CCC2=O)c1,5.18
11,C=CC(=O)N1CC(c2cnn(C)c2)C2(CCOCC2)C1 (stereo not drawn),3.98
12,Cc1cccc(CNc2ccc(C)c(C#N)n2)n1,4.72
13,C=CC(=O)N1CC(C)S(=O)(=O)C(C)C1 (stereo not drawn),5.08
14,CC1C(=O)N(CCS(=O)(=O)F)C(=O)N1c1ccccc1 (stereo not drawn),17.9
15,C=CC(=O)N1CCC2(CCC2)S(=O)(=O)CC1,8.9
16,Cc1nn(C)c(Cl)c1C=CC(=O)N1CCC(CN)C1.Cl (stereo not drawn),13.5
17,CC1(C)OB(c2cccc(C3CC(F)(F)C3(F)F)c2)OC1(C)C (stereo not drawn),-0.414
18,C=CC(=O)N1CCN(S(C)(=O)=O)[C@@H](C)C1,8.8
19,C=CC(=O)Nc1nc(C)cc(C)n1,-3.57
20,Cn1c(S)nc2ccccc2c1=O,3.7
21,N#Cc1ccc(CNC(=O)CCl)cc1,5.15
22,CCN(Cc1ccc(Br)s1)C(=O)CCl,12.9
23,C=CC(=O)N1CCC(c2nc(C)c(C(=O)O)s2)CC1,5.41
24,COC(=O)Cc1ccc(Oc2ccnc(C#N)c2)cc1,10.8
25,C=CC(=O)Nc1c(OC)ccc2c1CCC2,7.34
26,OB(O)c1cccc2c1OCCCO2,3.03

row,SMILES,Inhibition % [%]
1,O=S(=O)(F)c1ccc(Nc2ccc(F)cc2)nc1,2.34
2,CN(CCC1CCOCC1)c1nc2ccccn2c1C#N,5.08
3,C=CC(=O)NC(C)c1nc(Cc2ccccc2)no1 (stereo not drawn),4.55
4,C=CC(=O)NC1CCN(c2cnn(C)c2)C1 (stereo not drawn),33.9
5,CCn1cc(CCCl)cn1,5.4
6,N#Cc1cc(N2C[C@H](F)C[C@H]2C(N)=O)ccn1,15.6
7,CC1CC(N2CCCC(c3ccn[nH]3)C2)C(=O)O1 (stereo not drawn),1.38
8,O=C(CCl)N1N=C(c2cccs2)CC1c1cccs1 (stereo not drawn),0.318
9,C=CC(=O)N1CCCCC1CNC(C)=O (stereo not drawn),3.47
10,N#Cc1nccc(NCC2CCSCC2)n1,5.26
11,CNC(=O)C(C#N)=Cc1cccc(C)c1C,7.91
12,C=CS(=O)(=O)c1ccc(C#N)c(C(F)(F)F)c1,-2.38
13,N#Cc1ccc(N2CCC(Cc3ccccn3)CC2)cn1,8.15
14,C#CC(=O)Nc1cnn(C2CCCCO2)c1 (stereo not drawn),18.6
15,C=CC(=O)NCC1(c2ccccc2F)CCC1,5.16
16,C=CC(=O)N1CCC(C(=O)[O-])CC1.[Na+],4.18
17,N#Cc1ncn(CC(=O)NC2CCCCC2)n1,5.82
18,O=C1CN(C(=O)C=Cc2cc3ccccc3o2)CCN1,5.86
19,Cc1ccc(N2C[C@H](F)C[C@H]2C(N)=O)nc1C#N,6.25
20,N#CC1(CC2CO2)CCC1 (stereo not drawn),3.78
21,NC(=O)c1ccsc1NC(=O)CCl,84.7
22,N#Cc1nccnc1N1CC2(CCC2)c2c(F)cccc21,9.34
